Sequences with one replicate were seen in a single cluster, so their values are uncertain.
Each sequence was assayed on ATP (assay: switch fluorescence ratio, 500 uM ATP over buffer (Cy3 cluster intensity, sum of 5 cycles each) (fold (ratio)); higher = stronger signal-on switching upon ATP binding; sequences stand for … in TCGTCGGCAGCGTCAGATGTGTATAAGAGACAGTTTTTTTTTTTTTTTTTTTTTTTTT…TC). Settings: aptamer strand: ATP DNA aptamer (quencher-CACCTGGGGGAGTATTGCGGAGGAAGG + anchor), 100 nM annealed; ATP concentration: 500 uM; one replicate.
Method in brief: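 Between each of five buffer/ATP cycles, the flow-cell was stripped with NaOH and re-annealed. Each cycle imaged Cy3-labelled switching-strand clusters, annealed to 100 nM quencher-labelled ATP aptamer on a modified Illumina MiSeq flow-cell, first in selection buffer and then after 15 min with 500 uM ATP at 22 °C. The fluorescence ratio is summed target-cycle over summed buffer-cycle Cy3 intensity per cluster, averaged per switch-domain sequence, with clusters outside 100-1000 RFU excluded.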
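Further: ATP exposure 15 min at 22 °C before imaging.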

Sequence | switch fluorescence ratio
ATAATGTACG | 0.961
ATAATGTGGC | 1.01
ATAATTATGA | 1.01
ATAATTCACT | 1
ATAATTGGGC | 1.02
ATAATTGGTA | 1
ATACAGCATA | 1.12
ATACAGGATG | 1.01
ATACATGGGG | 1.02
ATACATGTAT | 1.02
ATACCCGCCT | 1.06
ATACGAGAGA | 1
ATACGCCTCG | 0.999
ATACGGGCTG | 1.04
ATACGTCTTG | 0.979
ATACGTTAGT | 1.07
ATACGTTTTT | 1
ATACTCCTGT | 1.03
ATACTGAATG | 0.983
ATACTGCCAT | 1.18
ATACTGCTGG | 1.05
ATACTTTGGA | 0.998
ATAGAAAAGG | 1.02
ATAGACCTAC | 1.26
ATAGAGATTT | 1.03
ATAGATATTA | 1.01

Sequence | switch fluorescence ratio
ATAGATCAGA | 1.03
ATAGATGTTA | 0.981
ATAGATTCGA | 0.997
ATAGCAAATG | 1.04
ATAGCACAGT | 1.31
ATAGCCCCCT | 1.01
ATAGCCTTCG | 1.37
ATAGCTCGGT | 0.96
ATAGCTGT | 0.946
ATAGCTGTGG | 0.968
ATAGGAAGCG | 0.988
ATAGGACTCT | 1.03
ATAGGAGGAG | 0.974
ATAGGCACCG | 1.1
ATAGGCCATA | 1.07
ATAGGCGGAC | 1.01
ATAGGGAACG | 0.969
ATAGGGACTT | 0.979
ATAGGGAGAA | 1.03
ATAGGGGCGA | 1.01
ATAGGTAAAT | 0.983
ATAGGTATAG | 0.998
ATAGGTCG | 1.01
ATAGGTTCAG | 0.968
ATAGTAACCA | 1.03
ATAGTAAGAG | 0.998

Sequence | switch fluorescence ratio
ATAGTAATGT | 0.97
ATAGTAATT | 1.03
ATAGTCGCAC | 1.03
ATAGTGATT | 0.994
ATAGTGCTTT | 0.97
ATAGTGGGAA | 1.02
ATAGTTTGCT | 1.01
ATATAAAATT | 1.01
ATATAAAGGC | 0.996
ATATAAATAG | 1.01
ATATAACC | 1.01
ATATACTGAA | 1.22
ATATAGCCAC | 1.05
ATATAGTGGA | 0.984
ATATATACAC | 1.02
ATATATATC | 1.03
ATATATGTAT | 1.01
ATATATTTTT | 0.953
ATATCAAAT | 1.03
ATATCCTCAG | 1.04
ATATCGCCTT | 1
ATATCGTGCG | 1
ATATCTAGTA | 1.01
ATATCTCATT | 1
ATATCTGCG | 0.963
ATATCTTATC | 0.937

Sequence | switch fluorescence ratio
ATATCTTGGC | 1.01
ATATGAATTT | 0.962
ATATGCGACG | 1.05
ATATGCTGAA | 0.987
ATATGGTTTT | 1.03
ATATGTCAGG | 0.958
ATATGTCTCC | 1.03
ATATGTGATC | 0.956
ATATGTTGGG | 0.925
ATATTAATAG | 0.949
ATATTCACG | 1.04
ATATTCTGAC | 1.11
ATATTGCAAT | 0.972
ATATTGGTGC | 1.07
ATATTGTG | 0.997
ATATTGTGAA | 1.02
ATATTTCTA | 0.988
ATATTTGCTA | 0.962
ATATTTTGCA | 1.03
ATATTTTGCT | 0.975
ATCAAAGAAT | 1.04
ATCAACGGCT | 1.06
ATCAATCAAT | 1.01
